assay: soluble on expression in E. coli; label from the status in PepcDB or PDB records

| Sequence | soluble on expression in E. coli |
| --- | --- |
| DVVMTQTPSSLAMSVGQKVTMSCKSSQSLLNISNQKNYLAWYQQKPGQSPKLLVYFASTRESGVPDRFIGSGSGTDFTLTISSVQAEDQADYFCQQHYRAPRTFGGGTKLEIK | soluble |
| GEFKGLNVCQPTRFISRHNIEGIFTFVDHRCVATVGYQPQELLGKNIVEFCHPEDQQLLRDSFQQVVKLKGQVLSVMFRFRSKNQEWLWMRTSSFTFQNPYSDEIEYIICTNTNVKNSSQE | soluble |
| HMKERPPPVPNPDYNSLKKGSLVKNLHMTEEVIVIAKWDYTAQQDQELDIKKNERLWLLDDSKTWWRVRNAANRTGYVPSNYVERK | soluble |
| MAPTKKVPQVPETVLKRRKQRADARTKAAQHKVTVAAKNKEKKTQYFKRAEKYVQEYRNAQKEGLRLKREAEAKGDFYVPAEHKVAFVVRIRGINQLHPKPRKALQILRLRQINNGVFVKLNKATLPLLRIIEPYVAWGYPNNKTIHDLLYKRGYAKVDGNRVPITDNTIVEQSLGKFNIICLEDLAHEIATVGPHFKEATNFLWPFKLNNPTGGWTKKTNHFVEGGDFGNREDQINNLLRKMV | not soluble |
| MDPIREGEVAHEGDSVYTLNDFTKLEKIGEGTYGVVYKGKNRRTNAMVAMKKIRLESEDEGVPSTAVREISLLKELQHPNVVGLEAVIMQENRLFLIFEFLSFDLKRYMDQLGKDEYLPLETLKSYTFQILQAMCFCHQRRVIHRDLKPQNLLVDNNGAIKLADFGLARAIGIPIRVYTHEVVTLWYRAPEILMGAQRYSMGVDMWSIGCIFAEMATKKPLFQGDSEIDELFRIFRVLGTPTELEWNGVESLPDYKATFPKWRENFLRDKFYDKKTGKHLLDDTAFSLLEGLLIYDPSLRLNAKKALVHPYFDNMDTSKLPAGNYRGELELF | not soluble |
| MNSAAGFSHLDRRERVLKLGESFEKQPRCAFHTVRYDFKPASIDTSSEGYLEVGEGEQVTITLPNIEGSTPPVTVFKGSKKPYLKECILIINHDTGECRLEKLSSNITVKKTRVEGSSKIQYRKEQQQQQMWNSARTPNLVKHSPSEDKMSPASPIDDIERELKAEASLMDQMSSCDSSSDSKSSSSSSSEDSSSDSEDEDCKSSTSDTGNCVSGHPTMTQYRIPDIDASHNRFRDNSGLLMNTLRNDLQLSESGSDSDD | soluble |
| MRGSGSMRGSGSMRPSMSGLHLVKRGREHKKLDLHRDFTVASPAEFVTRFGGDRVIEKVLIANNGIAAVKCMRSIRRWAYEMFRNERAIRFVVMVTPEDLKANAEYIKMADHYVPVPGGPNNNNYANVELIVDIAKRIPVQAVWAGWGHASENPKLPELLCKNGVAFLGPPSEAMWALGDKIASTVVAQTLQVPTLPWSGSGLTVEWTEDDLQQGKRISVPEDVYDKGCVKDVDEGLEAAERIGFPLMIKASEGGGGKGIRKAESAEDFPILFRQVQSEIPGSPIFLMKLAQHARHLEVQILADQYGNAVSLFGRDCSIQRRHQKIVEEAPATIAPLAIFEFMEQCAIRLAKTVGYVSAGTVEYLYSQDGSFHFLELNPRLQVEHPCTEMIADVNLPAAQLQIAMGVPLHRLKDIRLLYGESPWGVTPISFETPSNPPLARGHVIAARITSENPDEGFKPSSGTVQELNFRSSKNVWGYFSVAATGGLHEFADSQFGHCFSWGENREEAISNMVVALKELSIRGDFRTTVEYLINLLETESFQNNDIDTGWLDYLIAEKVQAEKPDIMLGVLEHHHHHHLEHHHHHH | soluble |
| MVIVLPRKYGKASRKCSRCGDHSALVRRYGLMLCRQCFRELAPKIGFKKYN | not soluble |
| SVQATREDKFSFGLWTVGWQARDAFGDATRTALDPVEAVHKLAEIGAYGITFHDDDLVPFGSDAQTRDGIIAGFKKALDETGLIVPMVTTNLFTHPVFKDGGFTSNDRSVRRYAIRKVLRQMDLGAELGAKTLVLWGGREGAEYDSAKDVSAALDRYREALNLLAQYSEDRGYGLRFAIEPKPNEPRGDILLPTAGHAIAFVQELERPELFGINPETGNEQMSNLNFTQGIAQALWHKKLFHIDLNGQHGPKFDQDLVFGHGDLLNAFSLVDLLENGPDGAPAYDGPRHFDYKPSRTEDYDGVWESAKANIRMYLLLKERAKAFRADPEVQEALAASKVAELKTPTLNPGEGYAELLADRSAFEDYDADAVGAKGFGFVKLNQLAIEHLLGAR | soluble |
